In PubChem BioAssay (NCI):
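Where inhibition never reached the appropriate level, the endpoint shown equals the highest concentration tested. Otherwise, values were interpolated linearly from a five-concentration, 48-hour dose response in 96-well plates. GI50 = concentration required for 50% inhibition of growth. At the TGI there is no net growth.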

Tested on: NCI-H322M lung
Assay: NCI tumour cell line growth inhibition, 48 h

| SMILES | TGI [µM] | GI50 [µM] |
| --- | --- | --- |
| O=C1CSC2(CC(/C=C/c3cccc([N+](=O)[O-])c3)=NN2c2cccc(S(=O)(=O)O)c2)N1c1nc2ccccc2s1 (centres undefined) | > 100 |  |
| O=[N+]([O-])c1ccc(C(=S)Nc2ccccc2)o1 | 13.3 |  |
| O=C(CC1(O)C(=O)N(Cc2ccccc2)c2ccccc21)c1ccc(C(=O)NCC2CCC3(CC2)OOC2(CCCCC2)OO3)cc1 (centres undefined) | > 100 | 8.65 |
| CCOP1(=O)C=C(C)C(Cl)=C(C)C1 (centres undefined) | > 100 |  |
| Oc1[nH]c2ccccc2c1N=NC(=S)Nc1ccccc1Cl | 42.5 |  |
| N#Cc1ccc(C=NC23CC4CC(CC(C4)C2)C3)cc1 | > 100 |  |
| c1cnc2c(c1)ccc1cccnc12 | > 100 |  |
| CCCCc1ccc(-n2sc3ncc(C)cc3c2=O)cc1 | > 100 |  |
| CCN(CC)c1ccc2c(c1)Oc1ccc(N(CC)CC)cc1C21Oc2ccccc2-c2c1c1ccccc1n2CC (centres undefined) | > 100 |  |
| N#CCCN1C/C(=C/c2ccc(Cl)cc2)C(=O)/C(=C/c2ccc(Cl)cc2)C1 | 10.7 | 3.44 |
| Cc1ccc2nc(N/N=C/c3sccc3C)cc(C)c2c1 | > 100 |  |
| COc1cc2c(c(O)c1OC)C(=O)[C@@H]1CCC(=O)N1C2 | > 100 |  |
| Cc1cc(N(CCCNc2ccnc3cc(Cl)ccc23)Cc2ccco2)nc(N2CCN(C)CC2)n1 | 9.14 | 2.65 |
| COc1cc2nc(-c3cc(F)ccc3O)nc(N[C@@H]3CNC[C@H]3C(C)(C)O)c2cc1OC | 5.11 | 2.13 |
| COC1C(N)C(OC2C(Oc3cccc4c(O)c5c(=O)oc6ccc(C)c7c(=O)oc(c34)c5c67)OC(C)C(O)C2(C)O)OC(C)C1O (centres undefined) | 1.93 |  |
| CCOC(=O)c1nc2cc(C(F)(F)F)ccc2nc1Nc1ccc(OC)cc1 | > 100 |  |
| CC1=NN(c2nc(N)nc(/C(C#N)=C\c3csc([N+](=O)[O-])c3)n2)C(C)(C)C1 | > 100 |  |
| COc1cc2c(cc1OC)-c1ncc3c(OC)c(OC)c(OC)cc3c1C2 | 58 | 3.59 |
| CC(=O)Oc1ccc(/C=C/C(=O)OCCCOC(=O)/C=C/c2ccc(OC(C)=O)c(OC(C)=O)c2)cc1OC(C)=O | > 100 |  |
| COCOCC/C=C/C=O | > 100 |  |
| Cc1c(-c2ccccc2)[nH]c2cc(Cl)ccc2c1=O | > 100 |  |
| Cc1ccc(C)c(N2C(=O)C(=O)C(c3nc4ccccc4s3)/C(=N/NC(=O)NN)C2=O)c1 (centres undefined) | > 100 |  |
| CC1=C(O)C2=C(C(=O)C1=O)[C@@H](C)CC[C@@H]2[C@@H](C)C/C=C/C(C)(C)O | 83.7 |  |
| CCOC(=O)/C(C#N)=C(O)/C(=C\c1ccc(Br)cc1)NC(=O)c1ccccc1 | > 100 |  |
| COc1ccc(NC(=O)C2CCC(CNS(=O)(=O)c3ccccc3)CC2)cc1OC (centres undefined) | > 100 | > 100 |

| SMILES | TGI [µM] | GI50 [µM] |
| --- | --- | --- |
| CCOC(=O)/C=C/CCO[Si](C)(C)C(C)(C)C | > 100 |  |
| CC(C)=CC(=O)N(C)C1C2CN3CCC(O2)C13 (centres undefined) | > 100 |  |
| CCOC(=O)C(=CNc1ccc(NC2=NCC(C)S2)cc1)C(=O)OCC (centres undefined) | > 100 |  |
| COC1C(O)C(CO)OC(OC2C(O)COC(OC3C(C)OC(OC4C(O[C@H]5CC[C@@]6(C)C(CC=C7[C@H]6CCC68C(=O)O[C@@](C)(CCCC(C)C)[C@H]6[C@@H](OC(C)=O)C[C@@]78C)C5(C)C)OCC(OS(=O)(=O)O)C4O)C(OC4OCC(O)C(O)C4O)C3O)C2O)C1O (some centres undefined) | 0.309 | 0.116 |
| O=S(=O)(c1cccc(N=C=S)c1)c1cccc(N=C=S)c1 | > 100 |  |
| OC(C#Cc1ccccc1)(c1ccccc1)c1ccccc1 | 75 |  |
| Cc1cc(C)nc(NS(=O)(=O)c2ccc(NC(=O)c3cccc4c(Nc5ccc(S(=O)(=O)Nc6cc(C)on6)cc5)c5ccccc5nc34)cc2)n1 | 37.7 |  |
| c1ccc2oc(-c3ccc(-c4nc5ccccc5o4)c4c3CC4)nc2c1 | > 100 |  |
| CC1(c2nc3ccccc3[nH]2)CCC(C(=O)O)C(C)(C)O1 (centres undefined) | > 100 |  |
| O=C(CC1SC(=Nc2ccccc2Cl)NC1=O)Nc1ccc(Cl)cc1Cl (centres undefined) | > 100 |  |
| COc1ccc(/C=C(\C#N)n2nnc3c(F)cccc32)cc1 | > 100 | 0.874 |
| Cc1cc(C)nc(NS(=O)(=O)c2ccc(Nc3c4ccccc4nc4c(C(=O)Nc5ccc(S(=O)(=O)N=C(N)N)cc5)cccc34)cc2)n1 | > 100 |  |
| COc1ccc(OC)c(CNc2ccc(C(=O)O)cc2)c1 | > 100 |  |
| COC(=O)C1=C(OC(=O)/C(=C/c2ccc(Cl)cc2)c2ccc(Cl)cc2)C(C(=O)OC)[C@]2(O)[C@@H](C(=O)OC)[C@H]1C[C@@H](c1ccccc1)[C@@H]2C(=O)OC (some centres undefined) | > 100 |  |
| CCOC(=O)c1c(C)n(-c2ccc(Cl)cc2)c2c1cc(O)c1[nH]c3c(c12)CCCC3 | > 100 |  |
| O=C(c1ccccc1)N(C(=O)c1ccccc1)c1nc(SCc2ccccc2)ns1 | 97.2 |  |
| Cc1ccc(-c2nc(N/N=C/C=C/c3ccccc3)c3ccccc3n2)cc1 | 64 |  |
| O=[N+]([O-])c1ccc(-c2nc3ccc(Cl)cc3[nH]2)cc1 | > 100 |  |
| Oc1ccc2cc(Br)ccc2c1-c1c(O)ccc2ccc(Br)cc12 | 26.4 |  |
| CCOP1(=O)CC(C)=C(Cl)C(O)C1 (centres undefined) | > 100 |  |
| C=C1CC(c2ccc(OCCCN3C(=O)c4ccccc4C3=O)cc2)OC1=O (centres undefined) | 30.7 |  |
| O=C(/C=C/c1cccc(O)c1)c1cccc(-n2cc(-c3ccccc3)[nH]c2=O)c1 | 14.8 | 4.97 |
| CCCC1CCC(=C2C(=O)CCC2=O)O1 (centres undefined) | > 100 |  |
| CCC1OC2C(CC=C(C)C)=C3OC(C)(O)C(C)(CC)C(OC(C)=O)C3=C3OC(=O)C=C1C32 (centres undefined) | > 100 |  |
| CCCCCCCC1(N=[N+]=[N-])C(=O)Nc2ccccc2C1=O (centres undefined) | 31.7 |  |
